Source: the CheMixHub viscosity set
Values joined by “and” are separate entries in the source; they are usually repeats but may differ in a detail not shown here. Equal entries are not always repeated. ± gives the uncertainty stated by the source. Further values from the same series stand in other lists.

Test: xn = mol fraction of the nth substance listed

## CC(C)O + O
308.15 K, 101 kPa, x1 = 0.114
  viscosity: 1.885 ± 0.38 mPa·s and 1.924 ± 0.39 mPa·s
308.15 K, 101 kPa, x1 = 0.2
  viscosity: 2.127 ± 0.018 mPa·s
308.15 K, 101 kPa, x1 = 0.231
  viscosity: 2.41 ± 0.49 mPa·s and 2.369 ± 0.48 mPa·s
308.15 K, 101 kPa, x1 = 0.3
  viscosity: 2.153 ± 0.014 mPa·s and 2.176 ± 0.018 mPa·s
308.15 K, 101 kPa, x1 = 0.4
  viscosity: 2.062 ± 0.014 mPa·s and 2.089 ± 0.017 mPa·s
308.15 K, 101 kPa, x1 = 0.412
  viscosity: 2.402 ± 0.49 mPa·s
308.15 K, 101 kPa, x1 = 0.413
  viscosity: 2.406 ± 0.49 mPa·s
308.15 K, 101 kPa, x1 = 0.5
  viscosity: 1.926 ± 0.013 mPa·s and 1.954 ± 0.016 mPa·s
308.15 K, 101 kPa, x1 = 0.6
  viscosity: 1.787 ± 0.012 mPa·s and 1.817 ± 0.015 mPa·s
308.15 K, 101 kPa, x1 = 0.7
  viscosity: 1.696 ± 0.013 mPa·s
308.15 K, 101 kPa, x1 = 0.7001
  viscosity: 1.669 ± 0.012 mPa·s
308.15 K, 101 kPa, x1 = 0.73
  viscosity: 2.065 ± 0.42 mPa·s and 2.042 ± 0.41 mPa·s and 2.057 ± 0.41 mPa·s
308.15 K, 101 kPa, x1 = 0.7999
  viscosity: 1.585 ± 0.011 mPa·s
308.15 K, 101 kPa, x1 = 0.8
  viscosity: 1.609 ± 0.013 mPa·s
308.15 K, 101 kPa, x1 = 0.8999
  viscosity: 1.538 ± 0.011 mPa·s
308.15 K, 101 kPa, x1 = 0.9
  viscosity: 1.558 ± 0.012 mPa·s
313.15 K, 101 kPa, x1 = 0.1
  viscosity: 1.466 ± 0.013 mPa·s
313.15 K, 101 kPa, x1 = 0.2
  viscosity: 1.811 ± 0.016 mPa·s
313.15 K, 101 kPa, x1 = 0.3
  viscosity: 1.835 ± 0.012 mPa·s and 1.859 ± 0.016 mPa·s
313.15 K, 101 kPa, x1 = 0.4
  viscosity: 1.765 ± 0.012 mPa·s and 1.793 ± 0.015 mPa·s
313.15 K, 101 kPa, x1 = 0.5
  viscosity: 1.657 ± 0.011 mPa·s and 1.683 ± 0.014 mPa·s
313.15 K, 101 kPa, x1 = 0.6
  viscosity: 1.544 ± 0.011 mPa·s and 1.57 ± 0.013 mPa·s
313.15 K, 101 kPa, x1 = 0.7
  viscosity: 1.476 ± 0.012 mPa·s
313.15 K, 101 kPa, x1 = 0.7001
  viscosity: 1.449 ± 0.01 mPa·s
313.15 K, 101 kPa, x1 = 0.7999
  viscosity: 1.379 ± 0.01 mPa·s
313.15 K, 101 kPa, x1 = 0.8
  viscosity: 1.403 ± 0.011 mPa·s
313.15 K, 101 kPa, x1 = 0.8999
  viscosity: 1.341 ± 0.01 mPa·s
313.15 K, 101 kPa, x1 = 0.9
  viscosity: 1.362 ± 0.011 mPa·s
313.15 K, 101.33 kPa, x1 = 0.0322
  viscosity: 0.942 ± 0.0094 mPa·s
313.15 K, 101.33 kPa, x1 = 0.114
  viscosity: 1.471 ± 0.015 mPa·s
313.15 K, 101.33 kPa, x1 = 0.231
  viscosity: 1.808 ± 0.018 mPa·s
318.15 K, 101 kPa, x1 = 0.0322
  viscosity: 0.857 ± 0.17 mPa·s and 0.848 ± 0.17 mPa·s
318.15 K, 101 kPa, x1 = 0.1
  viscosity: 1.268 ± 0.011 mPa·s
318.15 K, 101 kPa, x1 = 0.114
  viscosity: 1.402 ± 0.28 mPa·s and 1.419 ± 0.29 mPa·s
318.15 K, 101 kPa, x1 = 0.2
  viscosity: 1.56 ± 0.014 mPa·s
318.15 K, 101 kPa, x1 = 0.231
  viscosity: 1.779 ± 0.36 mPa·s and 1.742 ± 0.35 mPa·s
318.15 K, 101 kPa, x1 = 0.3
  viscosity: 1.58 ± 0.011 mPa·s and 1.603 ± 0.014 mPa·s
318.15 K, 101 kPa, x1 = 0.4
  viscosity: 1.525 ± 0.01 mPa·s and 1.55 ± 0.013 mPa·s
318.15 K, 101 kPa, x1 = 0.412
  viscosity: 1.794 ± 0.36 mPa·s
318.15 K, 101 kPa, x1 = 0.413
  viscosity: 1.778 ± 0.36 mPa·s
318.15 K, 101 kPa, x1 = 0.5
  viscosity: 1.437 ± 0.01 mPa·s and 1.462 ± 0.012 mPa·s
318.15 K, 101 kPa, x1 = 0.6
  viscosity: 1.345 ± 0.009 mPa·s and 1.368 ± 0.011 mPa·s
318.15 K, 101 kPa, x1 = 0.7
  viscosity: 1.29 ± 0.01 mPa·s
318.15 K, 101 kPa, x1 = 0.7001
  viscosity: 1.265 ± 0.009 mPa·s
318.15 K, 101 kPa, x1 = 0.73
  viscosity: 1.58 ± 0.32 mPa·s and 1.558 ± 0.31 mPa·s and 1.576 ± 0.32 mPa·s
318.15 K, 101 kPa, x1 = 0.7999
  viscosity: 1.208 ± 0.009 mPa·s
318.15 K, 101 kPa, x1 = 0.8
  viscosity: 1.23 ± 0.0098 mPa·s
318.15 K, 101 kPa, x1 = 0.8999
  viscosity: 1.176 ± 0.008 mPa·s
318.15 K, 101 kPa, x1 = 0.9
  viscosity: 1.194 ± 0.0095 mPa·s
323.15 K, 100 kPa, x1 = 0.1
  viscosity: 1.066 ± 0.044 mPa·s
323.15 K, 100 kPa, x1 = 0.25
  viscosity: 1.297 ± 0.053 mPa·s
323.15 K, 100 kPa, x1 = 0.4
  viscosity: 1.286 ± 0.053 mPa·s
323.15 K, 100 kPa, x1 = 0.5
  viscosity: 1.216 ± 0.05 mPa·s
323.15 K, 100 kPa, x1 = 0.8
  viscosity: 1.036 ± 0.042 mPa·s
323.15 K, 100 kPa, x1 = 0.9
  viscosity: 1.009 ± 0.041 mPa·s
323.15 K, 101 kPa, x1 = 0.1
  viscosity: 1.108 ± 0.01 mPa·s
323.15 K, 101 kPa, x1 = 0.2
  viscosity: 1.337 ± 0.009 mPa·s and 1.355 ± 0.012 mPa·s
323.15 K, 101 kPa, x1 = 0.3
  viscosity: 1.374 ± 0.009 mPa·s and 1.392 ± 0.012 mPa·s
323.15 K, 101 kPa, x1 = 0.4
  viscosity: 1.328 ± 0.009 mPa·s and 1.356 ± 0.011 mPa·s
323.15 K, 101 kPa, x1 = 0.5
  viscosity: 1.256 ± 0.009 mPa·s and 1.279 ± 0.011 mPa·s
323.15 K, 101 kPa, x1 = 0.6
  viscosity: 1.179 ± 0.008 mPa·s and 1.201 ± 0.0099 mPa·s
323.15 K, 101 kPa, x1 = 0.7
  viscosity: 1.137 ± 0.0093 mPa·s
323.15 K, 101 kPa, x1 = 0.7001
  viscosity: 1.113 ± 0.008 mPa·s
323.15 K, 101 kPa, x1 = 0.7999
  viscosity: 1.064 ± 0.008 mPa·s
323.15 K, 101 kPa, x1 = 0.8
  viscosity: 1.085 ± 0.0088 mPa·s
323.15 K, 101 kPa, x1 = 0.8999
  viscosity: 1.035 ± 0.008 mPa·s
323.15 K, 101 kPa, x1 = 0.9
  viscosity: 1.053 ± 0.0085 mPa·s
323.15 K, 101.33 kPa, x1 = 0.0322
  viscosity: 0.764 ± 0.0076 mPa·s
323.15 K, 101.33 kPa, x1 = 0.114
  viscosity: 1.128 ± 0.011 mPa·s
323.15 K, 101.33 kPa, x1 = 0.231
  viscosity: 1.373 ± 0.014 mPa·s
